Assay results as given in ChEMBL document CHEMBL4888484, “Replenishing the malaria drug discovery pipeline: Screening and hit evaluation of the MMV Hit Generation Library 1 (HGL1) against asexual blood stage Plasmodium falciparum ,using a nano luciferase reporter read-out” (2022).
Hit rate of the full screen: of about 4,800 compounds, about 420 (8.8%) showed an effect of 50% or more. The list shows a part of the results.

Test system: Plasmodium falciparum
Assay: Confirmatory screen in NF54 nanoGlo assay, in single point, at 2uM, 72h
Format: functional, Erythrocyte
Conditions: timepoint 72 hour

Row | SMILES | % Inhibition [%]
1 | COc1ccc(C(=O)Nc2cnccc2-n2nc(C)cc2C)cc1 | 4
2 | Cc1ccc(NC(=O)c2ccc3c(-c4ccccc4)onc3c2)cc1 | -22
3 | Cc1nc(Cn2nnc(NC(=O)c3cccc(F)c3)c2C)no1 | 1
4 | Cc1nc2cccnc2n1-c1cc(C(=O)NCc2ccccc2Cl)ccc1Cl | -2
5 | Cn1nc(C2CC2)c2c(C(F)(F)F)cc(-c3ccco3)nc21 | -2
6 | CC(C)c1cc(CNC(=O)N2CCCC[C@H]2c2cccc(F)c2)no1 | 25
7 | FC(F)(F)c1cnc(C[C@@H]2NCCc3ccccc32)c(Cl)c1 | -2
8 | CCc1ccc(-c2cc3n(n2)C[C@@](C)(C(=O)NC2CCCCC2)N(c2cc(C)cc(C)c2)C3=O)cc1 | 74
9 | O=C(NC1CCN(Cc2ccccc2)CC1)c1cn[nH]c1-c1ccccc1 | -3
10 | CCC(=O)Nc1ccc(-n2cnc(C(=O)NCc3ccco3)c2)nc1 | -11
11 | O=C(CCCCC(=O)n1nnc2ccccc21)n1nnc2ccccc21 | -10
12 | Cn1c(C(=O)Nc2ccc(S(N)(=O)=O)cc2)cc2occc21 | -14
13 | Cc1noc(C)c1NC(=O)CCS(=O)(=O)c1ccc2ccccc2c1 | -6
14 | COC[C@H](O)CNC(=O)c1cccn1C1CC1 | -1
15 | CN1c2cc(C(=O)N3CCc4ccccc4C3)ccc2C(=O)N2CCCC[C@H]21 | -6
16 | COc1ccc(-c2nn(CN(C)OC)c(=S)o2)cc1OC | -12
17 | COc1ccccc1C(=O)N1CCC([C@H](NC(=O)c2ccc3c(c2)OCO3)C(=O)NC(C)C)CC1 | 4
18 | O=C(c1[nH]nc(C2CC2)c1Br)N1CCC12CCC2 | -8
19 | Cc1ccc(NC(=O)CN2N=C(C(=O)Nc3ccc(F)cc3)CCC2=O)cc1F | -12
20 | Brc1cccc2c1OCC[C@@H]2Nc1ncnc2nc[nH]c12 | 17
21 | Cc1cc(Oc2ncccn2)ccc1NC(=O)N1CCOCC1 | 5
22 | Oc1ccc2cc(CN3CCC[C@H](CN4CCCC4)C3)ccc2c1 | 17
23 | Cc1cc(NC(=O)c2ccn(-c3nc(-c4cnn(C)c4)cc(C(F)(F)F)n3)n2)no1 | 1
24 | Cc1cccc(S(=O)(=O)Nc2ccc3nc(NC(=O)c4ccccc4)sc3c2)c1 | -2
25 | C#CCN(C(=O)c1cnn(CC(C)C)c1C(F)F)c1nccs1 | -1

Row | SMILES | % Inhibition [%]
26 | CNC(=O)Cc1noc(-c2sccc2C#N)n1 | -6
27 | CN(c1ccc(Br)cc1)S(=O)(=O)c1ccc2c(c1)CCN2C(=O)C1CCC1 | -7
28 | Cc1ncsc1CNS(=O)(=O)c1ccc(OCC(F)F)cc1 | 0
29 | Cc1nc(N2CCOCC2)nc2c1CCCC2 | 3
30 | O=C(c1cccs1)N1CCN(C2CCCCC2)CC1 | -12
31 | O=C(Nc1ccc(N2CCCCCC2)cc1C(=O)O)c1ccc(Cl)cc1 | 8
32 | C[C@H]1CCN(c2nc(-c3ccccn3)nc3c2CCC3)C1 | 91
33 | Cc1cnc(CNC(=O)Nc2nnc3ccccn23)s1 | -13
34 | CCc1[nH]nc(NC(=O)c2c(C)ccnc2O)c1C | -10
35 | CN(C)c1ccc(-c2nc3[nH]cnn3c2Nc2ccccc2)cc1 | 4
36 | C[C@H](NCCc1ccccc1)c1cccc(COc2nn3c(C(F)(F)F)nnc3c3ccccc23)n1 | -2
37 | COc1cc(C(=O)Nc2ccc3sc(NC(=O)c4cc(OC)c(OC)c(OC)c4)nc3n2)cc(OC)c1OC | 56
38 | COC1C(C(N)=O)OC2OC3(CCCCC3)OC21 (centres undefined) | -7
39 | CCOC(=O)C1CCN(C(=O)c2nc(-c3ccc(N4CCCC4)nc3)no2)CC1 | 3
40 | COc1ccc(-c2noc(Cn3c(=O)c4ccccc4n(CC(=O)NCCc4ccc(OC)c(OC)c4)c3=O)n2)cc1 | 0
41 | CC(C(=O)N1N=CCC1(O)C(F)(F)F)n1nc(C(F)(F)F)cc1C1CC1 (centres undefined) | -1
42 | O=C(NCc1ncc[nH]1)[C@@H]1COc2ccc(Br)cc21 | 11
43 | CCn1ccc(C(=O)NC2CCN(c3nnc4ccc(Cl)cn34)CC2)n1 | -10
44 | COc1cccc(S(=O)(=O)N2CCC(OCCOc3ccccc3)CC2)c1 | 0
45 | O=C(Nc1cccc(Oc2c(F)c(F)c(-c3c(F)c(F)c(Oc4cccc(NC(=O)c5ccccc5)c4)c(F)c3F)c(F)c2F)c1)c1ccccc1 | 5
46 | O=S(=O)(c1ccccc1F)C1CNC1 | -12
47 | CC(C)(C)c1ccc(C(=O)N[C@H]2CCCC[C@@H]2NC(=O)c2ccc(C(C)(C)C)cc2)cc1 | -5
48 | CCN1CCN(CC(=O)N2N=C(c3ccc(C)c(C)c3)C[C@H]2c2cccn2C)CC1 | 7
49 | Cc1ccc(CN2C(=O)NC3(CCCCC3C)C2=O)c(OCC2CCOC2)c1 (centres undefined) | 1
50 | CCC(=O)Nc1nc(-c2ccccc2)nc2c1C(=O)CCC2 | -2

Row | SMILES | % Inhibition [%]
51 | COc1cccc(N2CCN(C(=O)c3nn(-c4ccc(C)cc4)c(OC)cc3=O)CC2)c1 | -11
52 | O=C(NCC1CC2CCC1C2)N1CCOC(Cn2cccn2)C1 (centres undefined) | -16
53 | C=CCNCc1ccc(Br)cc1 | -13
54 | CC1CN(C(=O)C(Cc2ccccc2)NC(=O)c2ccccc2)CC(C)O1 (centres undefined) | -5
55 | Nc1ncnc(NCc2cccnc2OCC(F)F)c1Cl | 7
56 | c1ccc(CNc2ncnc3c2cnn3-c2ccccn2)cc1 | -4
57 | Cc1nnc(O)c(CNC(=O)COC2CCCC(C)C2)c1C (centres undefined) | -7
58 | CC(C)C(=O)N1N=C(C(C)C)C[C@]1(O)C(F)(F)F | -1
59 | O=C(Cn1c(=O)n(C2CC2)c(=O)c2snc(-c3ccccn3)c21)NCc1ccccc1 | 3
60 | CCc1cc(C(=O)N2CCC(C)CC2)c2c(C3CC3)nn(-c3ccc(F)cc3)c2n1 | 1
61 | CC[C@@H](CO)Nc1ncc2cc3ccccc3nc2c1C#N | -3
62 | O=C(N[C@H]1C[C@@H]2C[C@H]1CN2C(=O)c1cccc(C(F)(F)F)c1)c1ccccc1 | 3
63 | CCc1cccc(NC(=O)C2CCN(c3c(C)n(-c4ccccc4)c(=O)n(CC(C)C)c3=O)CC2)c1 | -4
64 | N#CCCN(C(=O)COC(=O)c1ccc(S(=O)(=O)N2CCOCC2)cc1)c1ccccc1 | 3
65 | CC(C)(NCCc1c[nH]c2ccccc12)c1nnnn1Cc1cccnc1 | 3
66 | Cn1c(-c2ccc(Cl)c(Cl)c2)c[n+](CC(=O)c2ccc(F)cc2)c1N | -13
67 | COc1ccc(CNCCC2C(C)CN(C)C(C)C2Cc2ccccc2)cc1 (centres undefined) | 59
68 | Cc1cccc(OC(=O)O[C@H]2c3nccnc3C(=O)N2c2ccc(Cl)cn2)c1 | -1
69 | CC(C)(C)c1ccc(-c2cc(C[C@H]3CNCC[C@H]3CC(=O)NCCN3CCOCC3)no2)cc1 | 9
70 | CC(=O)c1ccc(N2CCN(c3nccn4nc(-c5ccccc5C)cc34)CC2)cc1 | -5
71 | O=C(O)C[C@@H]1CCN(CC2CC2)C[C@@H]1Cc1nc2ccccc2[nH]1 | 2
72 | CC(C)N1CCC2(CC1)N=C(c1ccc3c(c1)OCO3)C[C@@H](c1cc(Cl)ccc1O)N2 | 41
73 | CN(C)c1ccc(C(=O)N[C@@]2(C)CCS(=O)(=O)C2)cc1 | -6
74 | COc1ccc(CCNc2nc(-c3ccc(OC)cc3F)c3c(N)n(-c4ccc(Cl)cc4)nc3n2)cc1 | 59
75 | CS(=O)(=O)N1CC[C@H](CC(=O)NCCCc2ccccc2)C1 | 2

Row | SMILES | % Inhibition [%]
76 | Cc1ccc(OCn2cc(NS(=O)(=O)c3cnn(C)c3C)cn2)c(C)c1 | -3
77 | CCN1C(=O)[C@]2(NC3(CCCCC3)C(=O)N2CC)c2ccccc21 | -9
78 | CCn1cc(-c2nc(-c3ccccc3C)no2)c(=O)c2cc(F)c(N3CCCCC3)cc21 | 47
79 | O=C1CCc2[nH]c(=O)n(C3CCCCC3)c(=O)c21 | 4
80 | COc1cccc(CCc2ccccc2OC[C@H](CN(C)C)OC(=O)CCC(=O)O)c1 | -8
81 | O=C(CN1CCCCC1=O)NCCc1c[nH]c2ccccc12 | -10
82 | Cn1n[n+](CCCCC(Cl)(Cl)Cl)c2ccccc21 | 53
83 | c1cc(-c2nc3cc4ccccc4cc3[nH]2)nc(-c2nc3cc4ccccc4cc3[nH]2)c1 | 99
84 | CN(C)/C=C/c1cc(C#N)c(C#N)cc1Br | -4
85 | CCn1cc(Cl)c(C(=O)N2N=C3/C(=C/c4ccc5c(c4)OCO5)CCCC3C2c2ccc3c(c2)OCO3)n1 (centres undefined) | 5
86 | COc1cc(C(c2c(C)n(C)n(-c3ccccc3)c2=O)c2c(C)n(C)n(-c3ccccc3)c2=O)c(Br)c(Br)c1OCc1ccccc1 | 7
87 | CCn1nccc1C(=O)NC1CCN(c2nnc3ccccn23)CC1 | -1
88 | COc1nc(NC[C@H]2CCCN2C(C)C)ncc1F | 66
89 | Cc1nn(-c2ncc(C(F)(F)F)cc2Cl)c(=O)n1-c1ccc(OCc2ccccc2)cc1 | -17
90 | C[C@H](NC(=O)c1ccsc1)c1cccs1 | 2
91 | Cc1cccc(C)c1NC(=O)C1(N(Cc2ccco2)C(=O)c2ccc(Cl)cc2)CCC(C)CC1 (centres undefined) | 4
92 | COCCN1CC2(CCCC2)N(C(=O)COc2ccc(F)cc2)CC1=O | -7
93 | Cc1ccc(N(Cc2cccs2)C(=O)c2cccs2)cc1Cl | 38
94 | O=C(c1ccccc1)c1c[nH]c2c(F)cc(F)cc2c1=O | -5
95 | O=C(NC1CCS(=O)(=O)C1)C1CC=CCC1 (centres undefined) | -6
96 | CCCN(CCO)C(=O)Nc1ccn(Cc2cn3ccccc3n2)n1 | -1
97 | N#CC1CCC(Nc2cnn(-c3ccncc3)c2)CC1 (centres undefined) | 5
98 | Cc1ccc(Cn2cnc(NC(=O)CCn3c(=O)cc(C(F)F)c4cn(C)nc43)n2)cc1 | -8
99 | COCCCn1c(NS(=O)(=O)c2ccc3ccccc3c2)c(S(=O)(=O)c2ccc(C)cc2)c2nc3ccccc3nc21 | 56
